# Laboratory results as given in the supplement of paper PMC8728848.
# The list shows a part of the results.
# Columns and labels:
# Assay in all cases: glycan array binding signal (z-score within array); higher = stronger binding
# Conditions in all cases: glycan notation: IUPAC condensed, linker removed
# GalNAc(b1-3)GalNAc = target: GalNAc(b1-3)GalNAc
# Summary of the method: (§1)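 Columns mapping to the same glycan were averaged after glycan names were converted to IUPAC-condensed notation. The data come from 3228 arrays in the Consortium for Functional Glycomics database, limited to those with an available protein sequence. Binding is reported as a within-array Z-score averaged across arrays of one protein sequence and across linkers.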
# GalNAc(b1-4)GlcNAc = target: GalNAc(b1-4)GlcNAc
# Summary of the method: as §1
# Glc(a1-4)Glc = target: Glc(a1-4)Glc
# Summary of the method: as §1
# Glc(a1-6)Glc(a1-6)Glc = target: Glc(a1-6)Glc(a1-6)Glc
# Summary of the method: as §1
# Glc(b1-4)Glc = target: Glc(b1-4)Glc
# Summary of the method: as §1
# Glc(b1-6)Glc = target: Glc(b1-6)Glc
# Summary of the method: as §1
# GlcA(b1-3)Gal = target: GlcA(b1-3)Gal
# Summary of the method: as §1
# GlcA(b1-3)GlcNAc = target: GlcA(b1-3)GlcNAc
# Summary of the method: as §1
# GlcA(b1-6)Gal = target: GlcA(b1-6)Gal
# Summary of the method: as §1
# [1] = target: GlcNAc(a1-3)Gal(b1-4)GlcNAc
# Summary of the method: as §1
# [2] = target: GlcNAc(a1-6)Gal(b1-4)GlcNAc
# Summary of the method: as §1
# [3] = target: GlcNAc(b1-2)Gal(b1-3)GalNAc
# Summary of the method: as §1
# [4] = target: GlcNAc(b1-2)Man(a1-3)[GlcNAc(b1-2)Man(a1-6)]Man(b1-4)GlcNAc(b1-4)GlcNAc
# Summary of the method: as §1
# GlcNAc(b1-3)Gal = target: GlcNAc(b1-3)Gal
# Summary of the method: as §1
# [5] = target: GlcNAc(b1-3)Gal(b1-3)GalNAc
# Summary of the method: as §1
# GlcNAc(b1-3)Gal(b1-4)Glc = target: GlcNAc(b1-3)Gal(b1-4)Glc
# Summary of the method: as §1
# [6] = target: GlcNAc(b1-3)Gal(b1-4)GlcNAc
# Summary of the method: as §1
# [7] = target: GlcNAc(b1-3)Gal(b1-4)GlcNAc(b1-3)Gal(b1-4)GlcNAc
# Summary of the method: as §1
# GlcNAc(b1-3)GalNAc = target: GlcNAc(b1-3)GalNAc
# Summary of the method: as §1
# GlcNAc(b1-3)Man = target: GlcNAc(b1-3)Man
# Summary of the method: as §1
# [8] = target: GlcNAc(b1-3)[GlcNAc(b1-4)][GlcNAc(b1-6)]GlcNAc
# Summary of the method: as §1
# [9] = target: GlcNAc(b1-3)[GlcNAc(b1-6)]Gal(b1-4)GlcNAc
# Summary of the method: as §1
# [10] = target: GlcNAc(b1-3)[GlcNAc(b1-6)]GalNAc
# Summary of the method: as §1
# [11] = target: GlcNAc(b1-4)Gal(b1-4)GlcNAc
# Summary of the method: as §1
# GlcNAc(b1-4)GlcNAc = target: GlcNAc(b1-4)GlcNAc
# Summary of the method: as §1
# [12] = target: GlcNAc(b1-4)GlcNAc(b1-4)GlcNAc
# Summary of the method: as §1
# [13] = target: GlcNAc(b1-4)GlcNAc(b1-4)GlcNAc(b1-4)GlcNAc(b1-4)GlcNAc
# Summary of the method: as §1
# [14] = target: GlcNAc(b1-4)GlcNAc(b1-4)GlcNAc(b1-4)GlcNAc(b1-4)GlcNAc(b1-4)GlcNAc
# Summary of the method: as §1
# [15] = target: GlcNAc(b1-4)[GlcNAc(b1-6)]GalNAc
# Summary of the method: as §1
# [16] = target: GlcNAc(b1-6)Gal(b1-4)GlcNAc
# Summary of the method: as §1
# GlcNAc(b1-6)GalNAc = target: GlcNAc(b1-6)GalNAc
# Summary of the method: as §1
# GlcNAc3Prop(b1-4)GlcNAc = target: GlcNAc3Prop(b1-4)GlcNAc
# Summary of the method: as §1
# Kdn(a2-3)Gal(b1-3)GlcNAc = target: Kdn(a2-3)Gal(b1-3)GlcNAc
# Summary of the method: as §1
# Kdn(a2-3)Gal(b1-4)GlcNAc = target: Kdn(a2-3)Gal(b1-4)GlcNAc
# Summary of the method: as §1
# [17] = target: Man(a1-2)Man(a1-2)Man(a1-3)Man
# Summary of the method: as §1
# [18] = target: Man(a1-2)Man(a1-2)Man(a1-6)[Man(a1-3)]Man
# Summary of the method: as §1
# Man(a1-2)Man(a1-3)Man = target: Man(a1-2)Man(a1-3)Man
# Summary of the method: as §1
# [19] = target: Man(a1-2)Man(a1-3)[Man(a1-2)Man(a1-6)]Man
# Summary of the method: as §1
# [20] = target: Man(a1-2)Man(a1-3)[Man(a1-2)Man(a1-6)]Man(a1-6)[Man(a1-2)Man(a1-2)Man(a1-3)]Man
# Summary of the method: as §1
# [21] = target: Man(a1-2)Man(a1-3)[Man(a1-2)Man(a1-6)]Man(a1-6)[Man(a1-2)Man(a1-2)Man(a1-3)]Man(b1-4)GlcNAc(b1-4)GlcNAc
# Summary of the method: as §1
# [22] = target: Man(a1-2)Man(a1-3)[Man(a1-6)]Man(a1-6)[Man(a1-2)Man(a1-3)]Man(b1-4)GlcNAc(b1-4)GlcNAc
# Summary of the method: as §1
# [23] = target: Man(a1-2)Man(a1-6)[Man(a1-3)]Man(a1-6)[Man(a1-2)Man(a1-2)Man(a1-3)]Man
# Summary of the method: as §1
# [24] = target: Man(a1-2)Man(a1-6)[Man(a1-3)]Man(a1-6)[Man(a1-2)Man(a1-2)Man(a1-3)]Man(b1-4)GlcNAc(b1-4)GlcNAc
# Summary of the method: as §1
# Man(a1-3)[Man(a1-6)]Man = target: Man(a1-3)[Man(a1-6)]Man
# Summary of the method: as §1
# [25] = target: Man(a1-3)[Man(a1-6)]Man(a1-6)[Man(a1-2)Man(a1-3)]Man(b1-4)GlcNAc(b1-4)GlcNAc
# Summary of the method: as §1
# [26] = target: Man(a1-3)[Man(a1-6)]Man(a1-6)[Man(a1-3)]Man
# Summary of the method: as §1
# [27] = target: Man(a1-3)[Man(a1-6)]Man(a1-6)[Man(a1-3)]Man(b1-4)GlcNAc(b1-4)GlcNAc
# Summary of the method: as §1
# [28] = target: Man(a1-3)[Man(a1-6)]Man(b1-4)GlcNAc(b1-4)GlcNAc
# Summary of the method: as §1
# Man(a1-6)Man = target: Man(a1-6)Man
# Summary of the method: as §1
# Man(b1-4)GlcNAc = target: Man(b1-4)GlcNAc
# Summary of the method: as §1
# Neu5Ac(a2-3)Gal = target: Neu5Ac(a2-3)Gal
# Summary of the method: as §1
# [29] = target: Neu5Ac(a2-3)Gal(b1-3)GalNAc
# Summary of the method: as §1
# [30] = target: Neu5Ac(a2-3)Gal(b1-3)GalNAc(b1-3)Gal(a1-4)Gal(b1-4)Glc
# Summary of the method: as §1
# [31] = target: Neu5Ac(a2-3)Gal(b1-3)GalNAc(b1-3)Gal(b1-4)GlcNAc
# Summary of the method: as §1
# [32] = target: Neu5Ac(a2-3)Gal(b1-3)GalNAc(b1-4)[Neu5Ac(a2-3)]Gal(b1-4)Glc
# Summary of the method: as §1
# [33] = target: Neu5Ac(a2-3)Gal(b1-3)GalNAc6S
# Summary of the method: as §1
# [34] = target: Neu5Ac(a2-3)Gal(b1-3)GlcNAc
# Summary of the method: as §1
# [35] = target: Neu5Ac(a2-3)Gal(b1-3)GlcNAc(b1-3)Gal(b1-3)GlcNAc
# Summary of the method: as §1
# [36] = target: Neu5Ac(a2-3)Gal(b1-3)GlcNAc6S
# Summary of the method: as §1
binder,measurement,setting,value
"LYVE-1 (Homo sapiens), Q9Y5Y7 (protein) MARCFSLVLLLTSIWTTRLLVQGSLRAEELSIQVSCRIMGITLVSKKANQQLNFTEAKEACRLLGLSLAGKDQVETALKASFETCSYGWVGDGFVVISRISPNPKCGKNGVGVLIWKVPVSRQFAAYCYNSSDTWTNSCIPEIITTKDPIFNTQTATQTTEFIVSDSTYSVASPYSTIPAPTTTPPAPASTSIPRRKKLICVTEVFMETSTMSTETEPFVENKAAFKNEAAGDPEVKFNWYVDGVEVHNAKPREEQYNSTYRVVSLVTVLHQDWLNGKEYKCKVSNKALPAPIEKTISKAKGQPREPQVYTLPPSRDELTKNQVSLTCLVKGFYPSDIAVEWESNGQPENNYKTTPPVLDSDGSFFLYSKLTVDKSRWQQGNVFSCSVMHEALHNHYTQRSLSLSPGK",glycan array binding signal (z-score),GalNAc(b1-3)GalNAc,-0.597
same,glycan array binding signal (z-score),GalNAc(b1-4)GlcNAc,-0.259
same,glycan array binding signal (z-score),Glc(a1-4)Glc,0.041
same,glycan array binding signal (z-score),Glc(a1-6)Glc(a1-6)Glc,-0.616
same,glycan array binding signal (z-score),Glc(b1-4)Glc,1.8
same,glycan array binding signal (z-score),Glc(b1-6)Glc,0.11
same,glycan array binding signal (z-score),GlcA(b1-3)Gal,-0.466
same,glycan array binding signal (z-score),GlcA(b1-3)GlcNAc,-0.307
same,glycan array binding signal (z-score),GlcA(b1-6)Gal,0.109
same,glycan array binding signal (z-score),[1],0.035
same,glycan array binding signal (z-score),[2],-0.736
same,glycan array binding signal (z-score),[3],0.05
same,glycan array binding signal (z-score),[4],-0.194
same,glycan array binding signal (z-score),GlcNAc(b1-3)Gal,-0.481
same,glycan array binding signal (z-score),[5],-0.415
same,glycan array binding signal (z-score),GlcNAc(b1-3)Gal(b1-4)Glc,-0.266
same,glycan array binding signal (z-score),[6],0.263
same,glycan array binding signal (z-score),[7],-0.114
same,glycan array binding signal (z-score),GlcNAc(b1-3)GalNAc,0.008
same,glycan array binding signal (z-score),GlcNAc(b1-3)Man,0.033
same,glycan array binding signal (z-score),[8],-0.378
same,glycan array binding signal (z-score),[9],-0.299
same,glycan array binding signal (z-score),[10],-0.128
same,glycan array binding signal (z-score),[11],-0.188
same,glycan array binding signal (z-score),GlcNAc(b1-4)GlcNAc,-0.326
same,glycan array binding signal (z-score),[12],0.143
same,glycan array binding signal (z-score),[13],-0.165
same,glycan array binding signal (z-score),[14],-0.624
same,glycan array binding signal (z-score),[15],-0.053
same,glycan array binding signal (z-score),[16],0.236
same,glycan array binding signal (z-score),GlcNAc(b1-6)GalNAc,-0.343
same,glycan array binding signal (z-score),GlcNAc3Prop(b1-4)GlcNAc,-0.504
same,glycan array binding signal (z-score),Kdn(a2-3)Gal(b1-3)GlcNAc,-0.628
same,glycan array binding signal (z-score),Kdn(a2-3)Gal(b1-4)GlcNAc,-0.424
same,glycan array binding signal (z-score),[17],-0.485
same,glycan array binding signal (z-score),[18],-0.159
same,glycan array binding signal (z-score),Man(a1-2)Man(a1-3)Man,-0.169
same,glycan array binding signal (z-score),[19],-0.24
same,glycan array binding signal (z-score),[20],-0.23
same,glycan array binding signal (z-score),[21],0.123
same,glycan array binding signal (z-score),[22],-0.147
same,glycan array binding signal (z-score),[23],0.082
same,glycan array binding signal (z-score),[24],0.014
same,glycan array binding signal (z-score),Man(a1-3)[Man(a1-6)]Man,-0.046
same,glycan array binding signal (z-score),[25],0.125
same,glycan array binding signal (z-score),[26],0.238
same,glycan array binding signal (z-score),[27],0.22
same,glycan array binding signal (z-score),[28],-0.527
same,glycan array binding signal (z-score),Man(a1-6)Man,-0.026
same,glycan array binding signal (z-score),Man(b1-4)GlcNAc,-0.937
same,glycan array binding signal (z-score),Neu5Ac(a2-3)Gal,-0.473
same,glycan array binding signal (z-score),[29],3.93
same,glycan array binding signal (z-score),[30],1.74
same,glycan array binding signal (z-score),[31],0.157
same,glycan array binding signal (z-score),[32],4.82
same,glycan array binding signal (z-score),[33],-0.154
same,glycan array binding signal (z-score),[34],0.151
same,glycan array binding signal (z-score),[35],0.656
same,glycan array binding signal (z-score),[36],0.919
